From the supplement of paper PMC11166567
The list shows a part of the results.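 Rule for the calls: active = permutation test q below 0.05 after Benjamini-Hochberg correction; inactive = q of 0.05 or more.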

These compounds were tested on U2OS (assay: mean average precision of replicate retrieval against DMSO controls (Cell Painting phenotypic activity) (fraction (0-1)); higher = stronger, more reproducible morphological phenotype distinct from DMSO; extreme values may be limits of the assay). Settings: 48 h; 5 µM.
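Note: cosine similarity of well-level aggregated Cell Painting profiles ranks each compound's replicate wells against DMSO wells, four replicate plates, significance from 100,000 rank shuffles.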

Compound	mean average precision
O/N=C/c1ccc(-c2ccc(O)c(F)c2)c(Cl)c1O	active: 0.931
Cc1nc(Nc2n[nH]c3c2CN(C(=O)N[C@H](CN(C)C)c2ccccc2)C3(C)C)c2sccc2n1	active: 0.379
C/C(=C\c1csc(C)n1)[C@@H]1C[C@@H]2O[C@]2(C)CCC[C@H](C)[C@H](O)[C@@H](C)C(=O)C(C)(C)[C@@H](O)CC(=O)N1	active: 1
Cc1ccc(Sc2cncc3sc(C(N)=O)cc23)cc1	active: 0.578
CC1(C)CNc2cc(NC(=O)c3cccnc3NCc3ccncc3)ccc21	active: 0.458
FC(F)OC(Cl)C(F)(F)F (centres undefined)	inactive: 0.124
CCOC(=O)C1=C(C)NC(C)=C(C(=O)OC)C1c1cccc(Cl)c1Cl (centres undefined)	active: 0.39
c1ccc(C(O[C@@H]2CCCN(CCc3ccc4c(c3)OCO4)C2)c2ccccc2)cc1	inactive: 0.273
CN(C)c1ccc(O)c2c1C[C@H]1C[C@H]3[C@H](N(C)C)C(=O)C(C(N)=O)C(=O)[C@@]3(O)C(=O)C1C2=O (some centres undefined)	active: 0.774
CC(=O)Oc1cccc2c1C(=O)c1c(OC(C)=O)cc(C(=O)O)cc1C2=O	inactive: 0.146
Nc1ncnc2c1c(-c1cccc(OCc3ccccc3)c1)cn2C1CC(CN2CCCC2)C1 (centres undefined)	active: 1
O=C(O)c1ccccc1Nc1cccc(C(F)(F)F)c1	active: 0.459
CCC(C)(C)C(=O)O[C@H]1C[C@@H](C)C=C2C=C[C@H](C)[C@H](CC[C@@H]3C[C@@H](O)CC(=O)O3)[C@H]21	active: 1
N#CC1(c2ccc(NC(=O)c3cccnc3NCc3ccncc3)cc2)CCCC1	active: 0.476
COC1=C2C[C@@H](C)C[C@H](OC)[C@H](O)[C@@H](C)/C=C(\C)[C@H](OC(N)=O)[C@@H](OC)/C=C/C=C(\C)C(=O)NC(=CC1=O)C2=O	active: 1
Cc1ccc(-n2sc(=O)n(Cc3ccc(F)cc3)c2=O)cc1	active: 1
CCn1cc(-c2ccnc3[nH]c(-c4cccc(CN(C)C)c4)cc23)c(-c2ccc(NC(=O)N(C)C)cc2)n1	active: 0.791

Compound	mean average precision
CC(C)CC(=O)Nc1n[nH]c2c1CN(C(=O)C1CCN(C)CC1)C2(C)C	active: 0.998
Cc1cc2c(s1)Nc1ccccc1N=C2N1CCN(C)CC1	active: 0.628
O=C(NCCN1CCC(n2c(=O)[nH]c3cc(Cl)ccc32)CC1)c1ccc(F)cc1	active: 1
CCOC(=O)C1=C(COCCN)NC(C)=C(C(=O)OC)C1c1ccccc1Cl (centres undefined)	active: 0.573
Cn1cc(-c2ccc3nnc(Sc4ccc5ncccc5c4)n3n2)cn1	inactive: 0.155
O=C(O)c1ccc(-n2nc(-c3ccccc3O)nc2-c2ccccc2O)cc1	active: 1
COc1c2occc2cc2ccc(=O)oc12	inactive: 0.162
CC(=O)Oc1cc2c(s1)CCN(C(C(=O)C1CC1)c1ccccc1F)C2 (centres undefined)	active: 0.547
COCCOC(=O)C1=C(C)NC(C)=C(C(=O)OC(C)C)C1c1cccc([N+](=O)[O-])c1 (centres undefined)	active: 0.782
C=C(NC(=O)C(=C)NC(=O)c1csc(C2=NC3c4csc(n4)C4NC(=O)c5csc(n5)C(C(C)(O)C(C)O)NC(=O)C5CSC(=N5)C(=CC)NC(=O)C(C(C)O)NC(=O)c5csc(n5)C3(CC2)NC(=O)C(C)NC(=O)C(=C)NC(=O)C(C)NC(=O)C(C(C)CC)NC2C=Cc3c(C(C)O)cc(nc3C2O)C(=O)OC4C)n1)C(N)=O (centres undefined)	active: 1
CCOC(=O)c1cc(C#N)c(N2CCC(C(=O)NS(=O)(=O)Cc3ccccc3)CC2)nc1C	active: 0.566
OCCn1cc(-c2cnc3nnn(Cc4ccc5ncccc5c4)c3n2)cn1	inactive: 0.202
NC(CO)(CO)CO	inactive: 0.195
CCCCOc1cc(CC2CNC(=O)N2)ccc1OC (centres undefined)	inactive: 0.182
CCCCc1nc(-c2ccc(OCCCN(CC)CC)cc2)cn1-c1ccc(Oc2ccc(Cl)cc2)cc1	active: 1
CC(OC(=O)NCC1(CC(=O)O)CCCCC1)OC(=O)C(C)C (centres undefined)	active: 0.568
C=C[C@H]1CN2CC[C@H]1C[C@@H]2[C@H](O)c1ccnc2ccc(OC)cc12	active: 0.414
